# The supplement of paper PMC3334620
# Whole data set: some 33,000 sequences, median “E-score (-0.5 to 0.5)” near -0.012, cut for the highest 2% near 0.27. The list shows a part of the results.
# Molecular target: T1, Vhr1 (UniProt P40522)
# T1 sequence: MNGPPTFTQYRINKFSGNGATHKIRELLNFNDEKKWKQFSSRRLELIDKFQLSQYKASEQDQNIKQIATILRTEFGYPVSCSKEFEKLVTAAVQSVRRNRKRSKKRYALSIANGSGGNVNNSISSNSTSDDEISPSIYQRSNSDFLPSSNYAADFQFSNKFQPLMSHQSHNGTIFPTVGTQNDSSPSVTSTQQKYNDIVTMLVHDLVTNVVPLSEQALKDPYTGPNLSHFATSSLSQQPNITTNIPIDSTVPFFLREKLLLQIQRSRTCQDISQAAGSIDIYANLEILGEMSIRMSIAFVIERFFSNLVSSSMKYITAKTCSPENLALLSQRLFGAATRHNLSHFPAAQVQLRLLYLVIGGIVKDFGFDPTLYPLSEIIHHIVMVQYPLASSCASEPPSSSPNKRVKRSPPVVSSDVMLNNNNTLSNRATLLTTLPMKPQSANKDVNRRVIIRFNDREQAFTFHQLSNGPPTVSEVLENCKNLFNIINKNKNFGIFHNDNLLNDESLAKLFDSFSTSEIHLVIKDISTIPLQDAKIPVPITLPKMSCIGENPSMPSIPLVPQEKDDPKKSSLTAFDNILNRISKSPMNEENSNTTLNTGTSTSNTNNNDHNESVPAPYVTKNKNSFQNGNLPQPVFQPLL
# Experiment: PBM E-score (8-mer binding enrichment) (E-score (-0.5 to 0.5)); higher = stronger / more preferred TF binding; most listed sequences are background and not binding sites
# Details: protein concentration: 200 nM; construct: GST-full length
# In short: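 E-scores (a modified Wilcoxon-Mann-Whitney statistic) were assigned by the Universal PBM Analysis Suite to every ungapped eight-base word pooled with its reverse complement. The input came from universal all-10-mer Agilent arrays made double-stranded by primer extension and probed with GST-tagged yeast transcription factors at about 100-200 nM. Fluorescent anti-GST detected bound protein, and masliner normalised the scans.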
row,Sequence,PBM E-score
1,AGGGGAAT,0.0507
2,CGACTCAC,0.448
3,CATATCCC,0.14
4,CTAGAGAA,-0.267
5,CTTAGAGA,-0.118
6,CGCAAAAG,-0.227
7,TATTGCAA,0.0217
8,CGTACCTA,0.0178
9,CTTCATTC,-0.0777
10,ATATCTGG,-0.0831
11,ACTACGAC,0.217
12,CTCCGCAG,0.0786
13,ATACGTGG,-0.0166
14,GGTTTGAC,-0.145
15,CGTAGAAG,-0.164
16,TAAATCCA,-0.0361
17,CACCCTAC,0.0405
18,CTGGCGCC,0.0245
19,CGTGATCC,-0.0765
20,CTGAGCTC,-0.16
21,CGGGGAGA,-0.016
22,CCCTAAAG,-0.255
23,GCATATAA,0.0992
24,CTCGCTCA,0.0513
25,CTGCCTTA,-0.167

row,Sequence,PBM E-score
1,ATCGGATA,0.166
2,CACATTGC,0.166
3,CTTTACCC,-0.0776
4,AGGGTGAA,-0.0322
5,CATATTCA,0.0975
6,CGGCATGA,0.175
7,CACTGATC,0.0134
8,CGCCCTTA,-0.0736
9,CCTGAAAC,-0.0231
10,CTCTAGGC,-0.0392
11,CCGGACGG,-0.00881
12,GGAGACCA,0.0819
13,CTGCGTGC,-0.103
14,CCCTGCTC,0.0218
15,AAACAACT,0.00486
16,CGGTCAGC,0.152
17,AAATTAGC,-0.0946
18,CACCTCCC,0.0532
19,GTATATCA,0.102
20,GCCGAGCA,-0.178
21,AAAGAGGA,-0.129
22,AGAAGGGA,-0.271
23,GGAGGTTA,-0.166
24,ACGGCCGC,-0.0188
25,GGAAGGGA,-0.14

row,Sequence,PBM E-score
1,CGAGTACC,0.137
2,AGGCGCAC,0.0383
3,CACTTCAA,-0.161
4,AATGATAC,0.235
5,ATACTGTA,0.224
6,CATTTGCC,-0.281
7,GACGTCTA,-0.138
8,ACAACCGG,-0.024
9,TTCTGAAA,-0.116
10,GATGGTAA,-0.0006
11,CGACGTCG,0.241
12,GACAGAGA,-0.0231
13,GATTATCA,0.195
14,AGTTGGCG,0.0558
15,CGAAGTCG,0.155
16,ACCATAGG,0.0531
17,GAGTTAGA,-0.0441
18,AATAAAAA,-0.0688
19,CGCGTTTA,-0.245
20,AAGGAGAC,-0.0537
21,AGGTAGCA,-0.205
22,GGTAATAA,0.0807
23,AGCAATAT,-0.00859
24,AGAGTCAA,0.112
25,CTAATTAC,-0.045

row,Sequence,PBM E-score
1,CGAAGCCG,-0.109
2,ACATGCTA,-0.107
3,CATGGGAA,0.0669
4,ATGTACGG,-0.094
5,CTTGTGGA,0.046
6,AGTCGTAT,0.193
7,CGACCCTA,0.125
8,CTTAAATA,-0.219
9,GGTGACCA,-0.0328
10,GGCGGACA,0.0669
11,ACTCCCCG,0.199
12,AATTGCCG,-0.0903
13,GCCAGTTA,-0.0947
14,ACCCATTA,0.188
15,GCGTATCC,-0.0183
16,CAAGTGTG,-0.0159
17,AAGGGGCT,-0.144
18,GTGCTTGA,-0.138
19,CCCACGCG,-0.0177
20,CGAACACG,-0.153
21,GGCTTGGA,-0.137
22,CCGATGCG,-0.0452
23,CGGTACGA,0.026
24,AAAATACA,-0.0261
25,CGAATAGC,-0.0698

row,Sequence,PBM E-score
1,GAAGGGCA,-0.0417
2,CAGTCACC,0.307
3,ACCTTGTG,0.0783
4,ATAACAAA,-0.116
5,ACAACTTA,-0.0681
6,AGACAGGG,-0.213
7,GTCCGTTA,-0.0753
8,AAGTAGCA,-0.0101
9,CCTGTCAG,-0.0391
10,ACTGCGCC,0.00594
11,ATGGAACC,-0.0125
12,ACGGGTCT,-0.0315
13,AGGATTTC,-0.0679
14,CTTCCTGC,-0.157
15,CAGTGCTA,0.0185
16,AAATTAAG,-0.268
17,CTATAACC,0.0268
18,CCATGCGG,-0.0155
19,AGTTATTA,0.0476
20,AGCCTGTG,-0.061
21,ATCTCTAC,-0.0237
22,CACTGCCG,0.173
23,GACTTTAA,-0.278
24,GTCATGCA,0.257
25,CCCCCACG,-0.227

row,Sequence,PBM E-score
1,ACATCGGA,0.0601
2,ATGTCGGG,0.185
3,CAGATCGA,-0.0512
4,AGGCCGAG,-0.121
5,TGGCTGAA,0.101
6,GCACGAAC,0.0284
7,CCATCTAA,-0.233
8,GGAATCAC,0.388
9,AGAGCACG,0.00968
10,AACACTAA,-0.0789
11,AACAACTG,-0.0196
12,GGAAATGA,-0.0111
13,GATAAGGA,0.0196
14,AATCACGT,0.225
15,CGCTAGCA,-0.207
16,ATAATGCC,-0.046
17,TACTCTGA,-0.0444
18,CATTTCCC,0.0757
19,CGTCCTAA,0.0547
20,GCGTGCAC,-0.0456
21,CGCGTTAC,-0.0726
22,GACCTAGA,0.0117
23,CATAACGG,-0.047
24,GTTAAAAC,-0.295
25,TTCTAAAA,-0.325

row,Sequence,PBM E-score
1,AAGATGCC,-0.0209
2,CTCCAAAG,0.0215
3,AGGGGAAC,-0.0228
4,ACTTTAGC,-0.128
5,CCTACTCG,-0.00717
6,CATAAACC,0.209
7,AGGTATGG,0.182
8,ATGTCTAC,-0.00143
9,AAAAAACT,-0.192
10,GATACATC,0.224
11,ATGTTGGA,0.169
12,GCTTTCCA,-0.123
13,GGTTTTCA,-0.00994
14,GATGCAGA,0.038
15,CTAACGAG,0.114
16,CCTGAACG,-0.143
17,CCAACCGA,0.175
18,AGGCCCCA,-0.273
19,ACCCCTAA,-0.167
20,ACAAAGGT,-0.147
21,ACAAACGT,-0.05
22,ACACACAA,0.226
